The experiment addresses T1, human CD4 (human, UniProt P01730).
T1 construct: whole, on cells
The experiment in a line: immunofluorescence on transfected COS7 cells, anti-human Fc detection. On the procedure: To determine if the ECD of PRO20080 can interact with a wild type PRO20080 on the cell surface, COS7 cells were transfected with wild type PRO20080 or human CD4, which contains an Ig domain, for use as a control. Forty-eight hours after transfection, the transfected cells washed and incubated with 5 µg/ml purified PRO20080 ECD-Fc fusion protein plus 5% normal goat serum. The treated cells were washed and fixed in 4% paraformadehyde for 15 minutes and then probed with a biotinlyated goat anti-human Fc antibody (Jackson Immunoreseach) at a dilution of 1:400. After a 30 minute incubation period, the fixed cells were washed and subsequently probed with a 1:400 dilution of Cy3-conjugated streptavidin label (Jackson Immunoresearch) for detection.

We go through one molecule from patent publication US7419799 (GENETECH, dated 2008).

B1: PRO20080 ECD-Fc fusion protein (Fc fusion, human)
chain: CFGPGNVVSQSSLTPLMVNGILGESVTLPLEFPAGEKVNFITWLFNETSLAFIVPHETKSPEIHVTNPKQGKRLNFTQSYSLQLSNLKMEDTGSYRAQISTKTSAKLSSYTLRILRQLRNIQVTNHSQLFQNMTCELHLTCSVEDADDNVSFRWEALGNTLSSQPNLTVSWDPRISSEQDYTCIAENAVSNLSFSVSAQKLCEDVKIQYTDTKMIL[omitted - human IgG1 Fc]
notes: domain: Fc; also called PRO20080-Fc fusion protein; PRO20080-Fc
For the molecule B1, the binding result is given as “no binding (tested: 5 µg/ml)”.
